Measurements from the RNAGym collection of RNA variant scans (doi:10.7554/elife.90254).
Read counts are not given, so values of variants with three or more changes are uncertain.

B1: LINE1-mini (parent)
chain: GGCAGAGCUCAACACAGCGUGGCAAAGUGGCUGUGGCUAGACUGCC

Variants of: B1
Test: self-cleavage, relative activity (ratio to wild type); higher = more cleavage; in vitro, sequencing; the parent is a self-cleaving ribozyme

Row | Variant | self-cleavage
1 | GGCAGAGCUCAAUACAGCGUGGCAAAGUCGCUGUGACUAGACUGCC [C13U G29C G36A] | 0.21
2 | GGCUAAGCUCAACACAGAGUGGCAAAGUGGCUGUGGCUAGACUGCC [A4U G5A C18A] | 0.12
3 | GGCAGAGCUCAUCACAGCGUGGCAAAUUGGCUGUGCCUAGACUGCC [A12U G27U G36C] | 0.05
4 | GGCAGGCCUCAAAACACCGUGGCCAACUGGCUGUGGCUAGACUGCC [A6G G7C C13A G17C A24C G27C] | 0.04
5 | GGCAGAGCUAAACACAGCGUGGCAAAGUUGCUGAGGCUAGACUGGC [C10A G29U U34A C45G] | 0
6 | GGCUGAGCUCAACACAGCGUGGCAAAGGGGCUCUGGCUAGACUGCC [A4U U28G G33C] | 0.02
7 | GGCAGAGCUCAACACAGCGUGGCAAAGUUCCUGUGGCAAGACUGCC [G29U G30C U38A] | 0.07
8 | AGCAGAGCUCAACACAGCGUGGCAAAGAGGCAGUGGCUAGACUGCC [G1A U28A U32A] | 0.04
9 | GGCAGAGCUCAACACAGCAUGGCAAAGUGGCUGUGGCUAUACUUCC [G19A G40U G44U] | 0.2
10 | GGCAUAGCUCAACACAGCUUGGGAAAGUGUCUGUGGCUAGACUGCC [G5U G19U C23G G30U] | 0.06
11 | GGCAGAGCUCAACAUAGCUUGGCAAAGUGGCUGUGGCUAUACUGAC [C15U G19U G40U C45A] | 0.01
12 | GACAAAGCUCAACACAGAGUGGCAAAGUGGCUGUGGCUAGACUGCC [G2A G5A C18A] | 0.19
13 | GGCAGUGCUGAACACACCGUGGUAUAGUGGCUGUGGCUAUACUGCC [A6U C10G G17C C23U A25U G40U] | 0.01
14 | GGCAGAGCUCAACACAGCGUGACAACGUUGCUGUGGCUAGACUGCG [G22A A26C G29U C46G] | 0.31
15 | GGCAGAGCUCAACAUCGCGUGGUAAAGUGGCUGUGGCUAGUCUGCC [C15U A16C C23U A41U] | 0.07
16 | GGCAGAGCUCUACACAGCGUGGCAAAAUGGCUGUGGUUAGUCUGCC [A11U G27A C37U A41U] | 0
17 | GGCAGAGCUCAGCACAGCCUGGCAAAGUGGCUGUGUCUAGACUGCC [A12G G19C G36U] | 0.03
18 | GGCAGAGCGCAACAGAGCGUGGCAAAGUUGCUGUGGCUAUACUGCC [U9G C15G G29U G40U] | 0
19 | GGCAUAGCUCAACAGAGCGUGGCAAAGUUGCUGUGGAUAGAAUGCC [G5U C15G G29U C37A C42A] | 0.01

Row | Variant | self-cleavage
20 | GGCAAUGCUCAACACAGCGAGGCAACGUGGCUGUGGCUAGACUGCC [G5A A6U U20A A26C] | 0.07
21 | GGCAGAGAUCAACACAGCAUGGCAGAGUGGCUGUGGCUAGACUGCC [C8A G19A A25G] | 0.1
22 | GCCAUAGCUCAACACAGCGAGGCAAAGUGGCUGUGGCUAGACUGCC [G2C G5U U20A] | 0.01
23 | GACCGAGCUCAACACAGCGUGGCAAAGUGGCUGUGGCUAGAAGGCC [G2A A4C C42A U43G] | 0.02
24 | GGCACAGCUCAACACAGCGUGGCAAAUUGGCUGUGGCUAAACUGCC [G5C G27U G40A] | 0.07
25 | GGCGCAGCUCAACAUAGCGUGGCAAAGUGGCUGUGGCUAGACUGCC [A4G G5C C15U] | 0.09
26 | GGCAGACCACAACACAACGUGGCACAGUGGCUGUGGAUAGACUGCC [G7C U9A G17A A25C C37A] | 0.02
27 | GGGCGAGGUCAACACAGCGUGGCAAAGUGGCUGUGGCUAGACUGCC [C3G A4C C8G] | 0.06
28 | GGCAGAUCUCAAAACAGCGUGGCAAAGUGGCUGUGGAUAGACUGCC [G7U C13A C37A] | 0.01
29 | GGCAGAACUCAACACAGCUUGGCAAAGUGGCUGUGGGUAGACUGCC [G7A G19U C37G] | 0.03
30 | GGCAGAGUUCAUAACAGCGUGGCAAAGUGGCUGUGGCUAGGCUGCC [C8U A12U C13A A41G] | 0.17
31 | GGCAGAGCUCAACACAGCGUGCCCAAGUGGCUGUUGCUAGAUUGCC [G22C A24C G35U C42U] | 0.02
32 | GGCAGAGCUCAACACAGCGUGGCAUAGUGGCAGUGGCUAGUCUGCC [A25U U32A A41U] | 0.21
33 | UUCAGAGCUCAACACAGCGGGGCAAAGUGGCUGUGGGUAGAGUGCC [G1U G2U U20G C37G C42G] | 0
34 | GGCAGAGCUCAACACCGCGUGGCAAAGUGGCUUUAGCUAGACUGCC [A16C G33U G35A] | 0.03
35 | GGAAGAGCUCAACAGAGCGUGGCAAAGUGGCUGUGGGUAGACUUCC [C3A C15G C37G G44U] | 0.01
36 | GGCAGAGCUCAACACAGCGAGGCAAAGUGUCUGUGGUUAGACUGCC [U20A G30U C37U] | 0.04
37 | GGCAGGGUUAAACACAGCGUGGCAAAGUGGCUGUGGCUAGACUGCC [A6G C8U C10A] | 0.02
38 | GGUAGAGCUCGACACAGCCUAGCAAAGUGGCUGUGGCUAGACUGCC [C3U A11G G19C G21A] | 0.03

Row | Variant | self-cleavage
39 | GGCAGAGGUCAACACAGCAUGGUAAAGUGGCUGUGGCUAGACUGAC [C8G G19A C23U C45A] | 0
40 | GACACAGCUUAAUACAGCGUGGCAAAGUGGCUGUUGCGAGACUGCC [G2A G5C C10U C13U G35U U38G] | 0.03
41 | GGCAGAGCCCAACCCAACGUUGCAAAGUGGCUGUGGCUACGCUGCC [U9C A14C G17A G21U G40C A41G] | 0.01
42 | GGCAGAACUCAACACAACGUGGCAAUGUGGUUUUGGCUAGACUUCC [G7A G17A A26U C31U G33U G44U] | 0.21
43 | GGCAGAGCUCUACACAGCGUGGCAAAGUGGCUGAGGCUAUAAUGCC [A11U U34A G40U C42A] | 0
44 | GGCAGGGCUCAACACAGUGUGGCAAAGUGGCUGCGGCUAGACUGCC [A6G C18U U34C] | 0.03
45 | GGCAGAGAUCAUCUCAGCGUGGCAAAGUGGCUGUGGCUAGACUGCC [C8A A12U A14U] | 0.1
46 | GGCAGAGCUCAACAGAGCGUUGCAAAGUGGCUGUGGCUAGACUUCC [C15G G21U G44U] | 0.02
47 | GGCAGAGCUCAACACCGCGUGGCAAAGUGGAUGUGGCUUGACUGCC [A16C C31A A39U] | 0.03
48 | GGCAGAGCUCAACACAGCUAAGCAAAGUGGCUGUGGCUCGACUGCC [G19U U20A G21A A39C] | 0.01
49 | GGCAGAGCUCGAAACAGCGUUGCAAAGUGGCAGUGGCUAGACUGCC [A11G C13A G21U U32A] | 0.01
50 | GGCAGAGCUCAACACAGCGUGGAAAAAUGUCUGUGGCUAGACUGCC [C23A G27A G30U] | 2.69
51 | GGCAGAGCUCAACACAGCUUGGCAAAGUGGCUUUGGCCUGACUGCU [G19U G33U U38C A39U C46U] | 0.07
52 | GGCAGAGCUCAACACGGCGUGGCAAAGUGGAUGUGGCUAGAGUGCC [A16G C31A C42G] | 0.01
53 | GGCAGGGCUCAACACAGCGUGGAAAAGUGGGUGUGGCUAGACUGCC [A6G C23A C31G] | 0.03
54 | GGCAGAGCUCAACACCGCGUGGUAAAGUGGCUGCGGCUAGACUGCC [A16C C23U U34C] | 0.11
55 | GGCACAGCUCAACACAGCGUCGCAAAGUGGCCGUCGCUAGACUGCC [G5C G21C U32C G35C] | 0.04
56 | GGCAGACCGCAACACAGCGGUGCAAAGUGGCUGUGGCUAGACUGCC [G7C U9G U20G G21U] | 0.06
